Data on one substance can be found in publication PMC8633271.

By UniProt entry, the sequences of proteins in these tests, tags left out.
UniProt Q91YH6: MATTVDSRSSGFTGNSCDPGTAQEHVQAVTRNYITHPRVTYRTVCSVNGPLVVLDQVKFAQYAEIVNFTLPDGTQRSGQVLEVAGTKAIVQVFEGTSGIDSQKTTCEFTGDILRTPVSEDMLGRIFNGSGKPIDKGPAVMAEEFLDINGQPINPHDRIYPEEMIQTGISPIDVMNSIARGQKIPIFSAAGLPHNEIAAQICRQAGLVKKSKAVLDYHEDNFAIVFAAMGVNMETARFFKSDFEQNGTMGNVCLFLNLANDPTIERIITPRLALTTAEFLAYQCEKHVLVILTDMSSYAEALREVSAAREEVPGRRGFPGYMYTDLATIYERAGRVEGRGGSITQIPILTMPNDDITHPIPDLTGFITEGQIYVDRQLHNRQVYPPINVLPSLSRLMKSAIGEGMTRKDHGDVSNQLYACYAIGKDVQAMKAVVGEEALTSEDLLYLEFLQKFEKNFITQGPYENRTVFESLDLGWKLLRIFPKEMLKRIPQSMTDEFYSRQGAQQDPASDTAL

Positions count from the first letter of the chain named. These are yes or no findings as the source states them, for the method shown. In cells and extracts the contact can be indirect. Some binding calls cover weakened binding; strength is not graded here. Where a sequence is shown, tags or fusion partners need not be part of it.

Common to all, as to assay: pull-down; purified GST-tagged Ncoa7 TLDc domain (775–943), WT or mutants, as baits; kidney lysate as prey; anti-B1 and anti-GST western blots; repeated three times; only the target purified
Experiment [1] deals with T1, GST-tagged E938A mutant of the TLDc domain of Ncoa7 (775–943) (UniProt Q6DFV7).
T1 sequence: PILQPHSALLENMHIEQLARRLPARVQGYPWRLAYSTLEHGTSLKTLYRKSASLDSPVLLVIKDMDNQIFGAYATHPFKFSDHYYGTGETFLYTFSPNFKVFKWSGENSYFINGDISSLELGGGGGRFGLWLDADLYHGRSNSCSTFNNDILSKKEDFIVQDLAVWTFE

Experiment [2] concerns the target T2, GST-tagged G802A mutant of the TLDc domain of Ncoa7 (775–943) (UniProt Q6DFV7).
T2 sequence: T1 sequence with G28A, A164E

Experiment [3] deals with T3, GST-tagged G815A mutant of the TLDc domain of Ncoa7 (775–943) (UniProt Q6DFV7).
T3 sequence: T1 sequence with G41A, A164E

Experiment [4] concerns the target T4, GST-tagged G845A mutant of the TLDc domain of Ncoa7 (775–943) (UniProt Q6DFV7).
T4 sequence: T1 sequence with G71A, A164E

Experiment [5] has as its target T5, GST-tagged G896A mutant of the TLDc domain of Ncoa7 (775–943) (UniProt Q6DFV7).
T5 sequence: T1 sequence with G122A, A164E

Experiment [6] concerns the target T6, GST-tagged L926A mutant of the TLDc domain of Ncoa7 (775–943) (UniProt Q6DFV7).
T6 sequence: T1 sequence with L152A, A164E

Experiment [7] has as its target T7, GST-tagged S817A mutant of the TLDc domain of Ncoa7 (775–943) (UniProt Q6DFV7).
T7 sequence: T1 sequence with S43A, A164E

The target of experiment [8] is T8, GST-tagged wild-type (WT) TLDc domain of Ncoa7 (775–943) (UniProt Q6DFV7).
T8 sequence: T1 sequence with A164E

As for “B1 subunit of V-ATPase (from UniProt Q91YH6 1-513)”, the binding entry is listed as “binds” in experiment [1]; “binds” in experiment [2]; “no binding” in experiment [3]; “no binding” in experiment [4]; “no binding” in experiment [5]; “binds” in experiment [6]. Further, the binding result in experiment [7] and in experiment [8] was “binds” each time.
